Source: PMC4911916
Results are given in words; binding and its absence hold for the method and conditions named. In cells and extracts the contact can be indirect. Some results given as binding are weak or reduced against the parent protein; the word gives no strength.

Sequences of proteins named here, by UniProt entry; tags and fusion partners are left off.
UniProt Q9UPY3: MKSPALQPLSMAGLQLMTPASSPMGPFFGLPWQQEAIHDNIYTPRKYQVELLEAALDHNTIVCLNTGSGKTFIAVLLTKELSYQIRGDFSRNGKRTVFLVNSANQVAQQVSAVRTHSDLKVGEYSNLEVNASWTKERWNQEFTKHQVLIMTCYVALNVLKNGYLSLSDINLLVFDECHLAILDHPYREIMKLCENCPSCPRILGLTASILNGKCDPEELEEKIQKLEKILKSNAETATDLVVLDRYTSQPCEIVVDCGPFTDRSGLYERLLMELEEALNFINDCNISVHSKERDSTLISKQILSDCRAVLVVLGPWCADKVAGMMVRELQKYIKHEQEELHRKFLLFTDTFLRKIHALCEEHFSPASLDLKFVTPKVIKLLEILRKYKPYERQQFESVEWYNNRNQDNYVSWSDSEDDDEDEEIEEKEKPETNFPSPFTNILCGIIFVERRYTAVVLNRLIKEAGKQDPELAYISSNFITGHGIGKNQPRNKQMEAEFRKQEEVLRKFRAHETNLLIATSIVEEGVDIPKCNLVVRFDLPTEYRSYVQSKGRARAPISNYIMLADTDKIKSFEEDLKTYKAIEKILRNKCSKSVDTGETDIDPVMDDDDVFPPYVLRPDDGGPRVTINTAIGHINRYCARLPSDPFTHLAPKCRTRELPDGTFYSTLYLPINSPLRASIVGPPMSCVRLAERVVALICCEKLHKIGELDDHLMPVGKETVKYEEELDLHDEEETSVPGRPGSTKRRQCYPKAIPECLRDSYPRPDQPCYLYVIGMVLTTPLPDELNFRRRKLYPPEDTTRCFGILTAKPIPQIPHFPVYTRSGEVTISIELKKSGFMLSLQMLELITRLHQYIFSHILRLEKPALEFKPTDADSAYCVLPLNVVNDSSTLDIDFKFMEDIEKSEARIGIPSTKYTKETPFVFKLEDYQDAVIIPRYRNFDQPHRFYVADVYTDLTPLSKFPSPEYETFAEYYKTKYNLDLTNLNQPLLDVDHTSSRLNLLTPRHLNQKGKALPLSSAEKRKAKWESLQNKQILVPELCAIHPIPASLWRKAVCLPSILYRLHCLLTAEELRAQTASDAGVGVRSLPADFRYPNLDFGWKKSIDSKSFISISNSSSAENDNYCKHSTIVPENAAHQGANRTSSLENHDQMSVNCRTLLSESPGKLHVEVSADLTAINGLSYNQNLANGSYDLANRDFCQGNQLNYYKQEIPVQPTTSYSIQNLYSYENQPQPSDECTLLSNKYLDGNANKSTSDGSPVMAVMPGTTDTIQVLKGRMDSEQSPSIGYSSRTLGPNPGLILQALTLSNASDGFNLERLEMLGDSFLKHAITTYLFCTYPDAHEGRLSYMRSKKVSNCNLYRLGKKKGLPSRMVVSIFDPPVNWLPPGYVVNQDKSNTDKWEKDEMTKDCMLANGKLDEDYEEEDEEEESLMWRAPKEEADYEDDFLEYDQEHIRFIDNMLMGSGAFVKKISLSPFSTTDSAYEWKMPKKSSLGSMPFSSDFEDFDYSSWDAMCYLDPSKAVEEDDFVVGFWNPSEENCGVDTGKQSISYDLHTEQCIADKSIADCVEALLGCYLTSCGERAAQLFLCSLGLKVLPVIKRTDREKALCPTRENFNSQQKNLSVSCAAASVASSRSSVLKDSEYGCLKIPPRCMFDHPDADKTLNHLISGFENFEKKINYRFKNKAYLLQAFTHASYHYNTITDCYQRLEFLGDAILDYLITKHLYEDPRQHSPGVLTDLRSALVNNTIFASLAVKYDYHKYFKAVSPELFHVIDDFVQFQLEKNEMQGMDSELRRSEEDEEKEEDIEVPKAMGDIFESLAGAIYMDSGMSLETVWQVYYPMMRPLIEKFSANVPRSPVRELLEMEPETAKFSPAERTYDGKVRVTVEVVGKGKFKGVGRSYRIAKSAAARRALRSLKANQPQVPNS
UniProt Q8NDV7: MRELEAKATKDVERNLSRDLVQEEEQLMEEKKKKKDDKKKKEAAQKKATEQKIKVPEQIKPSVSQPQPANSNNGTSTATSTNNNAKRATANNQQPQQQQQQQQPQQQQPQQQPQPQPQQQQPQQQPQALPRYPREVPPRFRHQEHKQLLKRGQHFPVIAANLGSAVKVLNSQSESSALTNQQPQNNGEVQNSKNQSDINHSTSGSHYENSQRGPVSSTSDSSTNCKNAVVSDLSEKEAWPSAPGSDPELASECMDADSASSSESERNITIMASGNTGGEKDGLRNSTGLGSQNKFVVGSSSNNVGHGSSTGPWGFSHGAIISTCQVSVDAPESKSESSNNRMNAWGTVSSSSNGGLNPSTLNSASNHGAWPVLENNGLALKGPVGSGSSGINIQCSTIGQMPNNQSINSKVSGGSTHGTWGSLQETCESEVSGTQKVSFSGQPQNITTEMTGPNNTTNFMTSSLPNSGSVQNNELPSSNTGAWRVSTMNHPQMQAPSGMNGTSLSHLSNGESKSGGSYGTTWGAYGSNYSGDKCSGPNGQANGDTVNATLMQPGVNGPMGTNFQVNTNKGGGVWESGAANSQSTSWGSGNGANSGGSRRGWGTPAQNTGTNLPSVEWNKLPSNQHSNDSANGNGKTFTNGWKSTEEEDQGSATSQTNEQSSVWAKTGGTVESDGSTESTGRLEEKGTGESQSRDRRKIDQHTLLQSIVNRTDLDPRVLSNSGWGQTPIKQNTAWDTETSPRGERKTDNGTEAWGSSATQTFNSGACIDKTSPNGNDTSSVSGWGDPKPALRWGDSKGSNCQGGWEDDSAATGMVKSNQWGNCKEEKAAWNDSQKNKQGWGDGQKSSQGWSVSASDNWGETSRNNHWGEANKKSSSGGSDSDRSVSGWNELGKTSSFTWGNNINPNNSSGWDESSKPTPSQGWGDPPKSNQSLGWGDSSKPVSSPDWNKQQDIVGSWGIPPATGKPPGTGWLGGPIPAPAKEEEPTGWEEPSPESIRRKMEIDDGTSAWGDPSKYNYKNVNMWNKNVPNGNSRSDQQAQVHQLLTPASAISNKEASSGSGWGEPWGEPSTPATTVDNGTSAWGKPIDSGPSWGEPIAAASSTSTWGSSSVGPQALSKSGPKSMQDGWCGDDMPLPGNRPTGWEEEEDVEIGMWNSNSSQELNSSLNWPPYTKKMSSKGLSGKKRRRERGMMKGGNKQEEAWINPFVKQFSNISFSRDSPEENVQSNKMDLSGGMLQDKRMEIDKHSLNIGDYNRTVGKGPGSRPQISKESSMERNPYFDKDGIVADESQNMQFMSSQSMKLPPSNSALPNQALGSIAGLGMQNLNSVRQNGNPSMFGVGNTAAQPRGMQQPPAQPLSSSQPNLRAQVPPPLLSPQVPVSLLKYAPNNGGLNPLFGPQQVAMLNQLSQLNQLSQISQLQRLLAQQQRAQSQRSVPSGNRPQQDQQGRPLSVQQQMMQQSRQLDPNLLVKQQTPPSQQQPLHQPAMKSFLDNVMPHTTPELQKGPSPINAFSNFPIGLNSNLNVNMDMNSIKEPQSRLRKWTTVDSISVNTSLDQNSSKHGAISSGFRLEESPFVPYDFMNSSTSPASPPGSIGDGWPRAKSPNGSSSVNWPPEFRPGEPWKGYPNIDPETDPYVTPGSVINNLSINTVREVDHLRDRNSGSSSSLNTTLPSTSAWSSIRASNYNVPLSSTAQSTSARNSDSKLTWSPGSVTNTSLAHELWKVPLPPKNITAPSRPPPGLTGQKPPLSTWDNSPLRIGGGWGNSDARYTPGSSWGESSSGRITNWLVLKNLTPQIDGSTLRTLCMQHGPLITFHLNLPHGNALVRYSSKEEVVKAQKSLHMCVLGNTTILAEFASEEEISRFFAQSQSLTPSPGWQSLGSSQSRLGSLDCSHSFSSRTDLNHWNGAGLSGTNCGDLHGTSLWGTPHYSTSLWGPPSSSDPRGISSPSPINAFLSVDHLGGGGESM
UniProt Q14974: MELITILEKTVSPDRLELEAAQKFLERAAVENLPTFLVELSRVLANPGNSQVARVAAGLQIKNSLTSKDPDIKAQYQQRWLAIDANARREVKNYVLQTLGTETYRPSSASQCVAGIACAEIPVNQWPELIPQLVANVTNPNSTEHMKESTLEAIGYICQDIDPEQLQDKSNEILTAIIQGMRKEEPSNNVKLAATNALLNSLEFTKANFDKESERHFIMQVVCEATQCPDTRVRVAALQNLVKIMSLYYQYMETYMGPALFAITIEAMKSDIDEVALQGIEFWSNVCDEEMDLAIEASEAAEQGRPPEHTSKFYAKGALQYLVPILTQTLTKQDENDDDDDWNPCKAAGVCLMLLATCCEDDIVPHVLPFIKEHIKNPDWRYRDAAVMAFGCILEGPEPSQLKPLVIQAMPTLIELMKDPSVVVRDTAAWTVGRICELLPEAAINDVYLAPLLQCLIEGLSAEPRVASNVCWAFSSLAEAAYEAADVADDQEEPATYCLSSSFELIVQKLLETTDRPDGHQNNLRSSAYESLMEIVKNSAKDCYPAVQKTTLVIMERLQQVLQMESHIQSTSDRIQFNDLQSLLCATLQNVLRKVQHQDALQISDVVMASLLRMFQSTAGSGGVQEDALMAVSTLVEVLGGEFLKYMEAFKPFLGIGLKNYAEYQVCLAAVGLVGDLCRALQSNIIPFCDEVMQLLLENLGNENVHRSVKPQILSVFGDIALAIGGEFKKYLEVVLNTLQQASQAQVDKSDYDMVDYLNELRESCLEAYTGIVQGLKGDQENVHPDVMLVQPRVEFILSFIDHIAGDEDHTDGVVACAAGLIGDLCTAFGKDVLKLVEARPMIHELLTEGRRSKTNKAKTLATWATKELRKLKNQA
UniProt P26599: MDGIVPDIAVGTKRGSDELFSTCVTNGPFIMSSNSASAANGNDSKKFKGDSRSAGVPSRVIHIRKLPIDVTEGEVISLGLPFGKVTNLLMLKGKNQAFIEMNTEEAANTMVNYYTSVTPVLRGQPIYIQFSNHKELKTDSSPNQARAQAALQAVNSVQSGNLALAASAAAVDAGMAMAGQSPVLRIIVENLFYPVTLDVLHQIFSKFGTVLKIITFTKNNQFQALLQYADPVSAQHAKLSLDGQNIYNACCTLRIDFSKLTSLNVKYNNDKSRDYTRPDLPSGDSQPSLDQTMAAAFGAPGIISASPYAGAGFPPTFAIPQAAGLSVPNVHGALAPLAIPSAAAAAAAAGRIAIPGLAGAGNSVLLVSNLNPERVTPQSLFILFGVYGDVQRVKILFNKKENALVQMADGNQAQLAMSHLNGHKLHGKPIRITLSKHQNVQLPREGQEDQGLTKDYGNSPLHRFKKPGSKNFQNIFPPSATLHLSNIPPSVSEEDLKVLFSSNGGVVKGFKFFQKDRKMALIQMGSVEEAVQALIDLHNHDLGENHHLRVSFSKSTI

target: Flag-HA-tagged AGO2 (human) (UniProt Q9UKV8); experiment: co-IP; anti-Flag resin IP of Flag-AGO2 from nuclear extract of the stable line versus Flag IP from T47D cells, Western blot of partners; 6 washes in IP300 buffer

Row | binding | Substance
1 | binds | AGO3 (from UniProt Q9H9G7 1-860)

target: endogenous Argonaute 2 (AGO2) (human (endogenous in T47D)) (UniProt Q9UKV8); experiment: co-IP; anti-AGO2 antibody IP from T47D nuclear extract versus IgG control, Western blot of partners; 300 µg protein, 4°C, 6 washes in IP300 buffer (300 mM NaCl, 0.05% NP-40)

Row | binding | Substance
2 | binds | AGO3 (from UniProt Q9H9G7 1-860)
3 | binds | Dicer (from UniProt Q9UPY3 1-1922)
4 | binds | TNRC6A (GW182) (from UniProt Q8NDV7 1-1962)
5 | no binding | KPNB1 (from UniProt Q14974 1-876)
6 | no binding | PTBP1 (from UniProt P26599 1-557)
